Laboratory results taken from PubChem BioAssay AID602310 (National Center for Advancing Translational Sciences (NCATS), 2012).
Several values for one entry are separate records, joined by “and”; a condition that tells them apart may be missing. Equal entries are not always repeated. Screen size: about 410,000 compounds; about 310 (0.076%) were called active. Inconclusive means that the source gave no clear call. Such entries were picked first, then a sample of the others. The call rests on the fitted dose curve; in most records, active means well fitted curve in the direction sought with a large enough effect; inconclusive means small, poorly fitted or top-dose-only effect; inactive means flat fitted curve, though single readings scatter. Where the call is inconclusive, the potency comes from a doubtful curve fit.

What follows are compounds tested against DNA dC->dU-editing enzyme APOBEC-3G (Homo sapiens) (UniProt Q9HC16) (assay: qHTS for Inhibitors of Vif-A3G Interactions: qHTS). Conditions: HeLa A3G-eYFP + Vif (tagged APOBEC3G with the HIV-1 protein that degrades it), YFP fluorescence, overnight; series mostly up to 46.1 µM.
UniProt Q9HC16, sequence (Q9HC16 whole entry, looked up): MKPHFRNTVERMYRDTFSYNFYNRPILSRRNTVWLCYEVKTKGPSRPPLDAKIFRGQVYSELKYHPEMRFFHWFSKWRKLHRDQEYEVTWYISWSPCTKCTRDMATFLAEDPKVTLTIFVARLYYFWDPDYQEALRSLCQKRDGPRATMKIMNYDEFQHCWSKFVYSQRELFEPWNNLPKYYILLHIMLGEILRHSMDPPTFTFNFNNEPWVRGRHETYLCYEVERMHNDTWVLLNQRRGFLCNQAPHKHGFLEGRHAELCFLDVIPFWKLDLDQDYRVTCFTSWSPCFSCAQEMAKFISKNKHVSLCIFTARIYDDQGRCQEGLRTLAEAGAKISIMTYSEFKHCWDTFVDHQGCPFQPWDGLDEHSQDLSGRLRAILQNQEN
How it was run: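 HeLa cells stably expressing Vif and C-terminally eYFP-tagged A3G, seeded overnight at 37 deg C, then exposed to compound by pintool overnight at 37 deg C. Rise in yellow fluorescence (Ex 488/Em 500-530, Acumen) marks blocked Vif-driven A3G degradation.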
Further: nearly all actives have a fitted effect of over 60% in size.
Potency means the concentration at half of the fitted maximal effect; tags describe the fitted curve by direction and shape.

Structure (SMILES)	Potency
Cn1cc(C(=O)N/N=C/C(Br)=C\c2ccccc2)ccc1=O	inconclusive: 5.62 µM [inhibitor, partial curve, poor fit]
COc1ccc(OC)c(-c2cc(C3CCN(C(=O)OC(C)(C)C)CC3)[nH]n2)c1	inactive
COc1ccc(C(=O)NNC(=O)c2ccccc2[N+](=O)[O-])cc1Br	inconclusive: 15.8 µM [inhibitor, single point]
COc1ccc(C(=O)/C(C#N)=N/Nc2ccccc2[N+](=O)[O-])cc1	inconclusive: 0.631 µM [inhibitor, full curve, poor fit]
CCOC(=O)c1c(-c2ccccc2)csc1NC(=O)/C(C#N)=C/c1ccc(O)c(OC)c1	inactive
COc1ccc(OCC(O)CNCCOc2ccccc2OC)c(C(C)(C)C)c1 (stereo unspecified)	inactive
CCSc1nnc(-c2ccncc2)o1	inactive
CC(CC(=O)Nc1ccc2c(c1)c(=O)n(C)n2-c1ccc2ccccc2c1)C(F)(F)F (stereo unspecified)	inconclusive: 2.24 µM [inhibitor, full curve, poor fit]
N#Cc1c(NC(=O)c2cnccn2)sc2c1CCCC2	inconclusive: 7.08 µM [inhibitor, partial curve]
C[n+]1ccnc2cc(Cl)ccc21	inconclusive: 20 µM [inhibitor, single point]
COc1ccc(Nc2nc(N)c(C(=O)c3ccc(F)cc3)s2)cc1	inconclusive: 0.891 µM [inhibitor, full curve, poor fit]
O=[N+]([O-])c1ccc(/C=N/Nc2ccnc3cc(Cl)ccc23)o1	inconclusive: 15.8 µM [inhibitor, single point]
COC(=O)CSc1nnc(C)c(=O)[nH]1	inactive
CC1(C)CCCN(C(=O)c2coc(=O)c(Br)c2)C1	inactive
COC(=O)c1ccc(CCc2cc(O)c(Br)cc2O)cc1	inconclusive: 35.5 µM [inhibitor, single point]
COc1ccccc1Nc1nnc(SCC2CCCCO2)s1 (stereo unspecified)	inconclusive: 17.8 µM [inhibitor, partial curve, poor fit]
CCOC(=O)c1ccccc1OCc1cc(/C=N/n2cncn2)ccc1OC	inconclusive: 17.8 µM [inhibitor, partial curve, poor fit]
COc1cccc(C2C3=C(CC(C)(C)CC3=O)Nc3cc4c(cc32)OCO4)c1 (stereo unspecified)	inconclusive: 35.5 µM [inhibitor, single point]
O=C(c1[nH]c(C(F)(F)F)nc1-c1ccccc1)N1CCN(c2ccccc2)CC1	inconclusive: 1.26 µM [inhibitor, full curve, poor fit]
COc1cc2ccccc2cc1C(=O)N/N=C/c1cccs1	inconclusive: 1.12 µM [inhibitor, full curve, poor fit]
CN(C)c1ccc(/C=C2\Cc3ccccc3C2=O)cc1	active: 3.16 µM

Structure (SMILES)	Potency
COc1ccc(/C=N/NC(=O)c2cc3c(ccc4ccccc43)o2)c(OC)c1	inconclusive: 10 µM [inhibitor, partial curve, poor fit]
CC1CCN(C(=O)CSc2nc(-c3ccccc3)no2)CC1	inactive
Cc1nn(-c2ccccc2)c2nc(C3CC3)cc(C(=O)Nc3ccccc3F)c12	inconclusive: 7.08 µM [inhibitor, partial curve, poor fit]
C[C@H]1CCC/C=C/[C@@H]2C[C@H](O)C[C@H]2[C@H](O)[C@H](S(=O)c2ccc(O)cc2)CC(=O)O1 (stereo partly specified)	inactive
O=C(NCc1ccco1)/C(=C\c1cccs1)NC(=O)c1ccco1	inactive
O=C(CCS(=O)(=O)c1ccccc1)Nc1nc2ccc(F)cc2s1	inconclusive: 10 µM [inhibitor, partial curve, poor fit]
CCOC(=O)N1CCN(S(=O)(=O)c2ccc(C(=O)Nc3sc4c(c3C(=O)OC)CCN(C)C4)cc2)CC1	inconclusive: 35.5 µM [inhibitor, single point]
COc1ccccc1CN(Cc1ccco1)c1cnc(S(C)(=O)=O)nc1C(=O)Nc1cc(C)ccc1C	inactive
COc1cccc(C2c3cc4c(cc3OC(NNC(N)=O)C2C)OCO4)c1O (stereo unspecified)	inconclusive: 1.78 µM [inhibitor, full curve, poor fit]
CN(C)c1ccc(/C=C/c2ccc3cc(F)ccc3n2)cc1	inconclusive: 3.16 µM [inhibitor, single point]
CCn1cc2nc(SCC(=O)Nc3ccc(C)cc3C)n(Cc3ccc(C)cc3)c(=O)c2n1	inconclusive: 3.55 µM [inhibitor, partial curve, poor fit]
COC(=O)N1C(=O)[C@@](Cc2ccccc2)(c2ccccc2)N1C(=O)OC	inconclusive: 22.4 µM [inhibitor, partial curve, poor fit]
CCOc1ccc(C(C(=O)NC2CCCC2)N(Cc2ccccc2)C(=O)c2nsc(Cl)c2Cl)cc1 (stereo unspecified)	inactive
CCOc1ccc(/C(C)=N/NC(=O)C(OC)c2ccccc2)cc1 (stereo unspecified)	inconclusive: 35.5 µM [inhibitor, single point]
CCOC(=O)CNS(=O)(=O)c1cc(-c2nnc(Nc3cccc(O)c3)c3ccccc23)ccc1C	inconclusive: 17.8 µM [inhibitor, single point]
Cc1ccc(NC(=O)c2ccc(NC(=O)N3CCSc4nc(C)cc(C)c43)cc2)c(Cl)c1	inactive
O=C(O)CCn1c(=O)n(CCC(=O)O)c(=O)n(CCC(=O)O)c1=O	inactive
COc1cc(OC)cc(-c2nnc(NC(=O)CCS(=O)(=O)c3ccccc3)o2)c1	inconclusive: 35.5 µM [inhibitor, single point]
COc1ccc(NC(=O)N(C)[C@H]2C[C@H]3c4[nH]c5ccc(-c6ccc7c(c6)OCO7)cc5c4CCN3C[C@H]2[C@H](C)O)cc1	inconclusive: 25.1 µM [inhibitor, single point]
Cn1nnnc1Sc1ncnc2scc(-c3ccc(F)cc3)c12	inconclusive: 11.2 µM [inhibitor, partial curve, poor fit] and inconclusive: 10 µM [inhibitor, partial curve, poor fit]
